Results as given in the supplement of paper PMC12217912.
The other results are listed elsewhere or left out. Sequences were assembled here from the parent chain. Inactive controls read about 0.05.

B1: TEV protease; numbered along this chain (parent)
chain: MGESLFKGPRDYNPISSSICHLTNESDGHTTSLYGIGFGPFIITNKHLFRRNNGTLVVQSLHGVFKVKDTTTLQQHLVDGRDMIIIRMPKDFPPFPQKLKFREPQREERICLVTTNFQTKSMSSMVSDTSCTFPSGDGIFWKHWIQTKDGQCGSPLVSTRDGFIVGIHSASNFTNTNNYFTSVPKNFMELLTNQEAQQWVSGWRLNADSVLWGGHKVFMVKPEEPFQPVKEATQL

Variants of: B1
Assay: raw area under fraction-flipped curve 0-4 h after induction (AUC4h, not background-subtracted), DNA-recorder readout of cleavage of the substrate (dimensionless); higher = more cleavage of the substrate by the protease variant
Settings: temperature: 34 °C; time window: 0-4 h after rhamnose induction
Experimental: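 In vivo DNA recorder in E. coli TOP10(DE3) ΔrhaA at 34 °C. Each TEVp single-site mutant (parent TEVp 0) is paired with a single-site variant of the 7-mer TEVs (canonical ENLYFQ|S). The substrate sits between flexible linkers in a Bxb1-sfGFP-TEVs-SsrA fusion, so cleavage stabilises Bxb1 and speeds flipping of a recombination array, read by NGS. The value is the raw area under the fraction-flipped curve over 0-4 h after rhamnose induction (AUC4h), with ≥20 reads per time point. It is not background-subtracted; inactive controls average about 0.047.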
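Note: Bxb1 expression induced with 0.2% (w/v) L-rhamnose at OD600 near 0.5, cultures sampled hourly, flipped fraction per protease–substrate barcode pair counted by paired-end Illumina sequencing.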

Variant: S18R
- area with substrate ENLAFQS: 0.0401
- area with substrate ENLCFQS: 0.0758
- area with substrate ENLDFQS: 0.0593
- area with substrate ENLFFQS: 0.0598
- area with substrate ENLHFQS: 0.09
- area with substrate ENLKFQS: 0.0907
- area with substrate ENLLFQS: 0.0691
- area with substrate ENLMFQS: 0.0594
- area with substrate ENLNFQS: 0.0469
- area with substrate ENLPFQS: 0.06
- area with substrate ENLRFQS: 0.0575
- area with substrate ENLSFQS: 0.0556
- area with substrate ENLVFQS: 0.085
- area with substrate ENLWFQS: 0.0826

Variant: N13R
- area with substrate ENLAFQS: 0.067
- area with substrate ENLCFQS: 0.071
- area with substrate ENLDFQS: 0.0693
- area with substrate ENLFFQS: 0.0952
- area with substrate ENLGFQS: 0.0402
- area with substrate ENLHFQS: 0.0778
- area with substrate ENLKFQS: 0.0771
- area with substrate ENLLFQS: 0.0874
- area with substrate ENLNFQS: 0.0701
- area with substrate ENLPFQS: 0.0599
- area with substrate ENLQFQS: 0.0627
- area with substrate ENLRFQS: 0.0824
- area with substrate ENLSFQS: 0.0594
- area with substrate ENLWFQS: 0.0965

Variant: N13K
- area with substrate ENLAFQS: 0.0644
- area with substrate ENLCFQS: 0.0576
- area with substrate ENLDFQS: 0.062
- area with substrate ENLEFQS: 0.0682
- area with substrate ENLFFQS: 0.0791
- area with substrate ENLHFQS: 0.0716
- area with substrate ENLIFQS: 0.0657
- area with substrate ENLKFQS: 0.0666
- area with substrate ENLLFQS: 0.0652
- area with substrate ENLNFQS: 0.0615
- area with substrate ENLPFQS: 0.057
- area with substrate ENLRFQS: 0.0886
- area with substrate ENLSFQS: 0.0587
- area with substrate ENLTFQS: 0.0615
- area with substrate ENLWFQS: 0.0651

Variant: N13G
- area with substrate ENLAFQS: 0.0698
- area with substrate ENLCFQS: 0.0612
- area with substrate ENLDFQS: 0.0646
- area with substrate ENLEFQS: 0.0274
- area with substrate ENLFFQS: 0.072
- area with substrate ENLHFQS: 0.0666
- area with substrate ENLKFQS: 0.0772
- area with substrate ENLLFQS: 0.103
- area with substrate ENLMFQS: 0.0744
- area with substrate ENLNFQS: 0.0667
- area with substrate ENLPFQS: 0.0554
- area with substrate ENLQFQS: 0.0729
- area with substrate ENLRFQS: 0.0641
- area with substrate ENLSFQS: 0.0737
- area with substrate ENLTFQS: 0.0711

Variant: P14W
- area with substrate ENLAFQS: 0.0678
- area with substrate ENLCFQS: 0.0791
- area with substrate ENLDFQS: 0.0605
- area with substrate ENLEFQS: 0.0739
- area with substrate ENLFFQS: 0.0787
- area with substrate ENLGFQS: 0.0739
- area with substrate ENLHFQS: 0.0645
- area with substrate ENLIFQS: 0.0557
- area with substrate ENLKFQS: 0.0681
- area with substrate ENLLFQS: 0.0806
- area with substrate ENLMFQS: 0.0629
- area with substrate ENLNFQS: 0.0728
- area with substrate ENLPFQS: 0.0574
- area with substrate ENLQFQS: 0.0648
- area with substrate ENLRFQS: 0.078
- area with substrate ENLSFQS: 0.0651
- area with substrate ENLVFQS: 0.0837
- area with substrate ENLWFQS: 0.0734

Variant: P14C
- area with substrate ENLAFQS: 0.0734
- area with substrate ENLCFQS: 0.0695
- area with substrate ENLDFQS: 0.0626
- area with substrate ENLEFQS: 0.0682
- area with substrate ENLFFQS: 0.0769
- area with substrate ENLGFQS: 0.0678
- area with substrate ENLHFQS: 0.07
- area with substrate ENLIFQS: 0.0797
- area with substrate ENLKFQS: 0.0794
- area with substrate ENLLFQS: 0.0762
- area with substrate ENLMFQS: 0.063
- area with substrate ENLNFQS: 0.0583
- area with substrate ENLRFQS: 0.0794
- area with substrate ENLSFQS: 0.0657
- area with substrate ENLVFQS: 0.0757
- area with substrate ENLWFQS: 0.0721

Variant: E25P
- area with substrate ENLAFQS: 0.0558
- area with substrate ENLCFQS: 0.0625
- area with substrate ENLDFQS: 0.0685
- area with substrate ENLEFQS: 0.055
- area with substrate ENLFFQS: 0.0599
- area with substrate ENLGFQS: 0.0455
- area with substrate ENLHFQS: 0.0571
- area with substrate ENLIFQS: 0.0525
- area with substrate ENLKFQS: 0.0607
- area with substrate ENLLFQS: 0.0619
- area with substrate ENLNFQS: 0.0666
- area with substrate ENLPFQS: 0.0526
- area with substrate ENLQFQS: 0.0627
- area with substrate ENLRFQS: 0.059
- area with substrate ENLSFQS: 0.0654
- area with substrate ENLWFQS: 0.0646

Variant: C20F
- area with substrate ENLAFQS: 0.0319
- area with substrate ENLCFQS: 0.0568
- area with substrate ENLDFQS: 0.0625
- area with substrate ENLEFQS: 0.0529
- area with substrate ENLFFQS: 0.0648
- area with substrate ENLHFQS: 0.0562
- area with substrate ENLIFQS: 0.0562
- area with substrate ENLKFQS: 0.058
- area with substrate ENLLFQS: 0.0444
- area with substrate ENLNFQS: 0.0521
- area with substrate ENLPFQS: 0.0562
- area with substrate ENLQFQS: 0.0535
- area with substrate ENLSFQS: 0.0482

Variant: C20M
- area with substrate ENLAFQS: 0.0575
- area with substrate ENLCFQS: 0.064
- area with substrate ENLDFQS: 0.0601
- area with substrate ENLEFQS: 0.0536
- area with substrate ENLFFQS: 0.0878
- area with substrate ENLHFQS: 0.0729
- area with substrate ENLKFQS: 0.0733
- area with substrate ENLMFQS: 0.0656
- area with substrate ENLNFQS: 0.0654
- area with substrate ENLPFQS: 0.0569
- area with substrate ENLSFQS: 0.0771
- area with substrate ENLWFQS: 0.055

Variant: I19H
- area with substrate ENLAFQS: 0.0556
- area with substrate ENLDFQS: 0.0544
- area with substrate ENLEFQS: 0.0604
- area with substrate ENLFFQS: 0.062
- area with substrate ENLGFQS: 0.074
- area with substrate ENLHFQS: 0.0536
- area with substrate ENLIFQS: 0.0679
- area with substrate ENLKFQS: 0.0592
- area with substrate ENLMFQS: 0.0556
- area with substrate ENLNFQS: 0.0627
- area with substrate ENLPFQS: 0.0604
- area with substrate ENLQFQS: 0.0441
- area with substrate ENLRFQS: 0.0603
- area with substrate ENLSFQS: 0.0613
- area with substrate ENLTFQS: 0.0761
- area with substrate ENLVFQS: 0.0754
- area with substrate ENLWFQS: 0.058

Variant: T23I
- area with substrate ENLAFQS: 0.052
- area with substrate ENLCFQS: 0.0652
- area with substrate ENLDFQS: 0.0673
- area with substrate ENLEFQS: 0.057
- area with substrate ENLFFQS: 0.0874
- area with substrate ENLGFQS: 0.0666
- area with substrate ENLHFQS: 0.0706
- area with substrate ENLIFQS: 0.0467
- area with substrate ENLKFQS: 0.0636
- area with substrate ENLLFQS: 0.058
- area with substrate ENLNFQS: 0.0552
- area with substrate ENLPFQS: 0.0525
- area with substrate ENLQFQS: 0.0819
- area with substrate ENLRFQS: 0.0697
- area with substrate ENLWFQS: 0.113

Variant: T23R
- area with substrate ENLAFQS: 0.0713
- area with substrate ENLCFQS: 0.0743
- area with substrate ENLDFQS: 0.0629
- area with substrate ENLFFQS: 0.0835
- area with substrate ENLHFQS: 0.0647
- area with substrate ENLIFQS: 0.106
- area with substrate ENLKFQS: 0.0789
- area with substrate ENLLFQS: 0.0644
- area with substrate ENLPFQS: 0.0577
- area with substrate ENLRFQS: 0.0544
- area with substrate ENLSFQS: 0.0702
- area with substrate ENLWFQS: 0.0659
